PubChem BioAssay AID624296 (National Center for Advancing Translational Sciences (NCATS), 2012)
Screen size: about 350,000 compounds; about 9,900 (2.8%) were called active. The inconclusive results got no clear call from the source; some entries with a clear call stand among them for comparison. Calls come from the whole dose curve; as a rule, active = well fitted activation curve with a large enough effect; inconclusive = small, poorly fitted or top-dose-only effect; inactive = no such curve, though single readings can be large or run the other way. Potencies of inconclusive entries are left out as doubtful fits.

Assay: A quantitative high throughput screen for small molecules that induce DNA re-replication in MCF 10a normal breast cells. For activity, positive = re-replication: % of control where 0% means no effect. Note: nearly all actives have a fitted effect of over 50% in size.
Conditions: MCF 10A DNA re-replication, Hoechst nuclear intensity, 48 h; activity, positive = re-replication: at 46.1 µM (top of the series)
Potency is the fitted concentration of half-maximal effect; tags give direction and shape of the fitted curve.

Q: For `COc1cc(OC)cc(C(=O)NC(=S)Nc2nc(-c3cc4ccccc4o3)cs2)c1`, which Potency is on record?
A: inactive

Q: With `CN(C(=S)NC(=O)c1ccccc1Br)C1CCCCC1` as the compound, how does the Potency read?
A: inactive

Q: For `COc1ccc(C(CNC(=O)c2cc(S(=O)(=O)NCc3ccccc3)ccc2C)N2CCOCC2)cc1` (centres undefined), which Potency is on record?
A: inactive

Q: For `N#CCn1c(C2CCCCC2)nc2ccccc2c1=O`, which Potency is on record?
A: inconclusive [activator, partial curve, poor fit]

Q: With `Cc1cc(C)cc(OCC(=O)OCc2nnc(-c3ccccc3)o2)c1` as the compound, how does the Potency read?
A: inconclusive [activator, full curve, poor fit]

Q: For `Cn1cccc1C(=O)NC(=O)COC(=O)c1ccc(S(C)(=O)=O)cc1`, which Potency is on record?
A: inactive

Q: Which Potency does the source give for `O=C(NCc1ccccc1)C12CN(Cc3ccccc3)CC1C(c1ccc([N+](=O)[O-])cc1)=NO2` (centres undefined) here?
A: inconclusive [activator, partial curve, poor fit]

Q: With `O=C1c2ccccc2C(=O)N1c1ncn[nH]1` as the compound, how does the Potency read?
A: inactive

Q: With `O=C(Nc1nnc(SCc2ccc(F)cc2)s1)C1CC(=O)N(Cc2ccccc2)C1` (centres undefined) as the compound, how does the Potency read?
A: inconclusive [activator, single point]

Q: For `CCc1nccn1CCC(=O)N1CCCC(N2CCN(c3ccccc3C)CC2)C1` (centres undefined), which Potency is on record?
A: inconclusive [activator, partial curve]

Q: Which Potency does the source give for `CCN(CC)Cc1cc2[nH]c3c4ccc(Cl)cc4ncc3c2cc1OC` here?
A: inactive

Q: With `CCN(CC)S(=O)(=O)c1ccc(O)c(NC(=O)COc2ccc(S(=O)(=O)N3CCOCC3)cc2)c1` as the compound, how does the Potency read?
A: inconclusive [activator, partial curve, poor fit]

Q: Which Potency does the source give for `O=c1c(Cl)c(N2CCNCC2)cnn1C12CC3CC(CC(C3)C1)C2` here?
A: inconclusive [activator, partial curve, poor fit]

Q: For `COc1cccc(/C=N/n2nnc3c(cnn3-c3ccccc3)c2=O)c1`, which Potency is on record?
A: inconclusive [activator, partial curve]

Q: For `CCc1cccc(N(C(=O)c2csnn2)C(C(=O)NC2CCCCC2)c2ccncc2)c1` (centres undefined), which Potency is on record?
A: inactive

Q: With `O=C(OCc1ccc(F)cc1)c1ccc2c(c1)-c1ccccc1C2=O` as the compound, how does the Potency read?
A: inconclusive [activator, single point]

Q: For `COc1ccc(C=C2C=C(C(C)(C)C)C(=O)C(C(C)(C)C)=C2)cc1OC`, which Potency is on record?
A: active: 20.6 µM

Q: Which Potency does the source give for `CC(=O)Cc1nsc(NC(=O)c2ccc(Br)o2)n1` here?
A: inconclusive [activator, single point]

Q: With `CC1Cc2ccccc2N1C(=O)CSc1nnnn1Cc1ccccc1` (centres undefined) as the compound, how does the Potency read?
A: inconclusive [activator, single point]

Q: For `Cc1ccc(C(=O)N2CCC(C(=O)c3ccc(F)cc3)CC2)cc1`, which Potency is on record?
A: inactive

Q: With `CCOC(=O)c1cnc2c(C)c(Cl)ccc2c1N1CCN(CC)CC1` as the compound, how does the Potency read?
A: inconclusive [activator, single point]

Q: For `C/C(=N\N(Cc1ccccc1)c1ccccc1)c1cccnc1`, which Potency is on record?
A: inactive

Q: With `CC(C)n1cnc2c(NCc3ccccc3)cc(N[C@H](C)CO)cc21` as the compound, how does the Potency read?
A: inconclusive [activator, single point]

Q: Which Potency does the source give for `O=C(Nc1cccc2ccccc12)N1CCCN(c2c(Cl)cncc2Cl)CC1` here?
A: inconclusive [activator, single point]

Q: With `COc1ccc(Cl)cc1NC(=O)CN(C)C1CCS(=O)(=O)C1` (centres undefined) as the compound, how does the Potency read?
A: inactive

Q: Which Potency does the source give for `COc1cc([N+](=O)[O-])ccc1N/C=C/C(=O)c1cccs1` here?
A: inactive

Q: For `CCCCN(Cc1ccccc1)C1CCN(Cc2ccccc2)CC1`, which Potency is on record?
A: inconclusive [activator, partial curve, poor fit]

Q: For `c1ccc(CNc2ncnc3[nH]ncc23)cc1`, which Potency is on record?
A: inactive

Q: With `NC(=S)N/N=C/c1ccc(-c2ccc(Cl)c(Cl)c2)o1` as the compound, how does the Potency read?
A: inconclusive [activator, single point]

Q: With `Cc1ccc(S(=O)(=O)N(C)CCCC(=O)Nc2ccc(C)cc2C)cc1` as the compound, how does the Potency read?
A: inactive

Q: For `Cc1ccc2[nH]c3nc(NN)nnc3c2c1`, which Potency is on record?
A: inconclusive [activator, single point]

Q: For `O=C(NCCc1ccc(Cl)cc1)c1cc(-c2ccccn2)nc2ccccc12`, which Potency is on record?
A: inconclusive [activator, single point]

Q: For `COc1c(C)cccc1C(=O)Nc1ccc(OCC(=O)N2CCOCC2)cc1C`, which Potency is on record?
A: inconclusive [activator, full curve, poor fit]

Q: With `O=C(CSc1ccc([N+](=O)[O-])cn1)Nc1ccc2[nH]c(=O)[nH]c2c1` as the compound, how does the Potency read?
A: inconclusive [activator, single point]

Q: For `NC(=O)c1cc(S(=O)(=O)Nc2cccc(Cl)c2)cs1`, which Potency is on record?
A: inconclusive [activator, partial curve, poor fit]

Q: For `CCOc1ccc(NC(=O)CCNc2c(N3CCCC3)c(=O)c2=O)cc1`, which Potency is on record?
A: inconclusive [activator, partial curve, poor fit]

Q: For `CCc1nc(Sc2nc(C)cc(C)n2)c2oc3ccccc3c2n1`, which Potency is on record?
A: inconclusive [activator, single point]

Q: Which Potency does the source give for `CCC1(CC)NC(=O)N(CC(=O)Nc2cccc3ccccc23)C1=O` here?
A: inactive

Q: With `O=C(Nc1cccc(Br)c1)c1cccc(OC(=S)N2CCOCC2)c1` as the compound, how does the Potency read?
A: inconclusive [activator, partial curve, poor fit]

Q: With `CNc1nc(Nc2ccc(C)c(Cl)c2)c2cnn(C)c2n1` as the compound, how does the Potency read?
A: inconclusive [activator, single point]

Q: For `CCOC(=O)COc1ccc2cc(C(=O)OCC)c(=O)oc2c1`, which Potency is on record?
A: inactive

Q: With `CCCN1CCC(=O)N([C@H](CSc2ccc(C)cc2)c2ccccc2)CC1` as the compound, how does the Potency read?
A: inconclusive [activator, full curve, poor fit]

Q: With `CCc1ccc(Sc2cc(C(=O)NCCN3CCOCC3)c3ccccc3n2)cc1` as the compound, how does the Potency read?
A: inconclusive [activator, single point]

Q: With `O=C(O)CSc1nnc(-c2ccc(Cl)cc2Cl)n1-c1ccccc1` as the compound, how does the Potency read?
A: inconclusive [activator, partial curve, poor fit]

Q: Which Potency does the source give for `Cc1ccc(C)c(NC(=O)NNC(=O)c2cc3ccccc3cc2O)c1` here?
A: active: 14.6 µM

Q: For `Cc1ccc(CSCCNC(=O)CN2C(=O)c3ccccc3S2(=O)=O)cc1`, which Potency is on record?
A: inactive

Q: Which Potency does the source give for `CCN1C(=O)[C@H]2[C@@H](c3ccc(-c4ccc(Cl)c(Cl)c4)cc3)N[C@@](CC(C)C)(C(=O)OC)[C@H]2C1=O` here?
A: inconclusive [activator, single point]

Q: For `COc1cc(-c2cn[nH]c2N)cc(OC)c1OC`, which Potency is on record?
A: inconclusive [activator, single point]

Q: For `Cc1cnc(NC(=O)CCCNC(=O)c2ccc(Cl)cc2)s1`, which Potency is on record?
A: inactive

Q: For `O=C(NNC(=O)c1cccs1)c1ccco1`, which activity, positive = re-replication is on record?
A: inactive: 0.685% [at 9.22 µM]

Q: With `Cn1nnnc1SCC1=C(C(=O)O)N2C(=O)[C@@H](NC(=O)[C@H](O)c3ccccc3)[C@H]2SC1` as the compound, how does the Potency read?
A: inconclusive [activator, full curve, poor fit]

Q: With `O=C(O)c1cccc(NC(=O)c2cccc(NC(=O)C3CCCO3)c2)c1` (centres undefined) as the compound, how does the Potency read?
A: inactive

Q: For `O=C(Nn1nnnc1Nc1ccccc1)C12CC3CC(CC(C3)C1)C2`, which Potency is on record?
A: inconclusive [activator, single point]

Q: With `COc1ccc(CN2CCN(CCCc3ccccc3)C(CCO)C2)c(OC)c1` (centres undefined) as the compound, how does the Potency read?
A: inconclusive [activator, single point]

Q: With `Cc1cc(C)cc(NC(=O)COc2ccc(C(=S)N3CCOCC3)cc2)c1` as the compound, how does the Potency read?
A: inconclusive [activator, single point]

Q: For `Oc1ccc(/C=N/Nc2nc(-c3cccnc3)nc3ccccc23)c(O)c1`, which Potency is on record?
A: inconclusive [activator, partial curve, poor fit]

Q: Which Potency does the source give for `Cc1ccccc1NC(=O)c1sc(Cl)nc1C` here?
A: inactive

Q: For `Cc1nc(Nc2ccc3c(c2)OCCO3)c2nnn(Cc3ccccc3Cl)c2n1`, which Potency is on record?
A: inconclusive [activator, single point]

Q: For `O=C(CSc1nc2scc(-c3cccs3)c2c(=O)n1CCc1ccccc1)N1CCCC1`, which Potency is on record?
A: inactive

Q: With `O=C(COc1ccccc1[N+](=O)[O-])N1CCN(C(=O)c2ccco2)CC1` as the compound, how does the Potency read?
A: inconclusive [activator, single point]

Q: With `CCOC(=O)c1ccc(NC(=O)CSc2nc3cccnc3n2C)cc1` as the compound, how does the Potency read?
A: inconclusive [activator, single point]

Q: For `Cc1ccc2sc(N(CCCN(C)C)C(=O)CCS(=O)(=O)c3ccccc3)nc2c1C`, which Potency is on record?
A: inconclusive [activator, partial curve, poor fit]

Q: For `COc1ccc(-c2nnc(SCC(=O)Nc3sc4c(c3C#N)CCCC4)n2-c2ccccc2)cc1`, which Potency is on record?
A: inconclusive [activator, partial curve, poor fit]

Q: Which Potency does the source give for `C/C(CCc1oc2ccc(Br)cc2c1-c1ccc(C)o1)=N/O` here?
A: inconclusive [activator, single point]

Q: Which Potency does the source give for `C=C[C@]12CC[C@H](OC(C)=O)CC1=CCC1C2CC[C@@]2(C)C1CCC21OCCO1` (some centres undefined) here?
A: inconclusive [activator, single point]

Q: With `O=C(N/N=C\c1ccc(Cl)cc1)c1sccc1-n1cccc1` as the compound, how does the Potency read?
A: inconclusive [activator, partial curve, poor fit]

Q: For `CCc1sc(C(=O)Nc2ccc3nc(C)sc3c2)cc1C`, which Potency is on record?
A: inconclusive [activator, single point]

Q: Which Potency does the source give for `Cc1sc(NC(=S)NC(=O)CCc2ccccc2)c(C(N)=O)c1C` here?
A: active: 0.13 µM

Q: For `Cc1ccc(/C=N\NC(=O)c2cc([N+](=O)[O-])cc([N+](=O)[O-])c2)o1`, which Potency is on record?
A: inactive
